# Several values for one entry are separate records, joined by “and”; a condition that tells them apart may be missing. Identical values can stand only once. The shares of active, inactive and inconclusive entries below differ from those in the screen. For part of these data: Where the call is inconclusive, the potency comes from a doubtful curve fit. A structure can be active in one record and inactive in another. Activity calls are given as the source filed them. Unless noted, the call rests on the fitted dose curve.
# Legend:
# [1] = biological target: Bile acid receptor (Homo sapiens) (UniProt Q96RI1); experiment: qHTS assay to identify small molecule antagonists of the farnesoid-X-receptor (FXR) signaling pathway (AID 743217; active means well fitted inhibition curve with a large enough effect in the signal ratio in the repeat runs, not every such curve was filed as active; inconclusive means weak or mixed curves, or effect the other way; inactive means no such curve, though single readings can be large or run the other way; the % refers to the signal ratio; further: on the % scale 0 is the no-effect control and ±100 the full control effect); conditions: HEK293T FXR-UAS-bla, beta-lactamase ratio, CDCA-stimulated, 16 h; activity change, negative = inhibition: at 62.6 µM (top of the series) unless noted
# Method in brief: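 Test compounds are pin-transferred onto FXR-bla HEK 293T cells, then chenodeoxycholic acid is added at 50 uM final. After 16 h at 37 °C, LiveBLAzer B/G substrate is applied for 2 h at room temperature and fluorescence read.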
# [2] = biological target: Vitamin D3 receptor (Homo sapiens) (UniProt P11473); experiment: qHTS assay to identify small molecule antagonists of the vitamin D receptor (VDR) signaling pathway (AID 743223; active means well fitted inhibition curve with a large enough effect in the signal ratio in the repeat runs, not every such curve was filed as active; inconclusive means weak or mixed curves, or effect the other way; inactive means no such curve, though single readings can be large or run the other way; the % refers to the signal ratio; further: potency means the concentration at half of the fitted maximal effect; on activity change, negative = inhibition: on the % scale 0 is the no-effect control and ±100 the full control effect); conditions: VDR-UAS-bla HEK293T, beta-lactamase FRET ratio, 16 h; activity change, negative = inhibition: at 61 µM (top of the series) unless noted
# Method in brief: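 Cells carrying a VDR-driven beta-lactamase reporter (VDR-bla) were co-treated with compound and 3 nM final 1alpha,25-dihydroxyvitamin D3 for 16 h at 37C; reporter activity was measured as FRET substrate fluorescence after 2 h at room temperature.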
# [3] = qHTS assay to identify small molecule agonists of the endoplasmic reticulum stress response signaling pathway - cell viability counter screen (AID 1159517); further: nearly all actives have a fitted effect of over 50% in size; further: potency means the concentration at half of the fitted maximal effect;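 on activity change, negative = cytotoxicity: HeLa cells carrying an ER stress response element beta-lactamase reporter; on the % scale 0 is the no-effect control and ±100 the full control effect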
# Method in brief: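 In parallel with the ESRE reporter read, cytotoxicity was scored by CellTiter-Glo luminescence (30 min, room temperature) on HeLa ESRE-bla cells dosed for 5 hr.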
# [4] = biological target: Nuclear receptor ROR-gamma (Homo sapiens) (UniProt P51449); experiment: qHTS assay to identify small molecule antagonists of the retinoid-related orphan receptor gamma (ROR-gamma) signaling pathway (AID 1159521; active means well fitted curve in the direction sought with a large enough effect in the repeat runs; inconclusive means weak or mixed curves; inactive means no such curve, though single readings can be large; an effect the other way counts as inactive or inconclusive; further: nearly all actives have a fitted effect of over 50% in size; further: potency means the concentration at half of the fitted maximal effect)
# Method in brief: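 Cells were plated, rested 4 h at 37 C, exposed to compounds for 2 h, then given 1 uM final doxycycline hyclate to induce RORγ expression. After 16 h, ONE-Glo luminescence from the ROR response element reporter was measured.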
# [5] = qHTS assay to identify small molecule agonists of the AP-1 signaling pathway (AID 1159526); conditions: ME-180 (cervical carcinoma) AP-1-bla reporter, beta-lactamase FRET ratio, 5 h; activation: at 76.8 µM (top of the series) unless noted; further: potency means the concentration at half of the fitted maximal effect
# [6] = biological target: Retinoic acid receptor RXR-alpha (Homo sapiens) (UniProt P19793); experiment: qHTS assay to identify small molecule agonists of the RXR signaling pathway (AID 1159527); conditions: HEK293T RXRa-UAS-bla, beta-lactamase ratio, 16 h; activation: at 76.8 µM (top of the series) unless noted; further: nearly all actives have a fitted effect of over 35% in size; further: potency means the concentration at half of the fitted maximal effect
# Method in brief: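 Cells plated at 2,000/well, rested 5 hr at 37 C, pin-dosed with DMSO compound solutions, incubated 16 hr, then loaded with B/G FRET substrate for 2 hr at RT before dual-emission fluorescence reading.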
# [7] = biological target: Peroxisome proliferator-activated receptor delta (Homo sapiens) (UniProt Q03181); experiment: qHTS assay to identify small molecule agonists of the peroxisome proliferator-activated receptor delta (PPARd) signaling pathway (AID 743212); conditions: HEK293H PPARd-UAS-bla, beta-lactamase FRET ratio, 17 h; activation: at 62.6 µM (top of the series) unless noted; further: potency means the concentration at half of the fitted maximal effect
# Method in brief: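 Tox21 library screened in GeneBLAzer PPARd UAS-bla HEK293H cells. After compound treatment at 37 C, a FRET-based beta-lactamase substrate was applied for 2 h and fluorescence recorded.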
# [8] = qHTS assay to identify small molecule antagonists of the peroxisome proliferator-activated receptor delta (PPARd) signaling pathway - cell viability counter screen (AID 743213; active means well fitted curve in the direction sought with a large enough effect in the repeat runs; inconclusive means weak or mixed curves; inactive means no such curve, though single readings can be large; an effect the other way counts as inactive or inconclusive; further: potency means the concentration at half of the fitted maximal effect; nearly all actives have a fitted effect of over 50% in size); conditions: PPARd-bla HEK293H viability, CellTiter-Glo luminescence, 17 h; viability change, negative = cytotoxic: at 62 µM (top of the series) unless noted
# Method in brief: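 Luminescence from CellTiter-Glo, added after the bla read and incubated 30 min at room temperature, gives viability of HEK293H PPARd-bla cells exposed to compounds for 17 h at 37 C with 300 nM L165041.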
# [9] = biological target: Peroxisome proliferator-activated receptor delta (Homo sapiens) (UniProt Q03181); experiment: qHTS assay to identify small molecule antagonists of the peroxisome proliferator-activated receptor delta (PPARd) signaling pathway (AID 743215; active means well fitted inhibition curve with a large enough effect in the signal ratio in the repeat runs, not every such curve was filed as active; inconclusive means weak or mixed curves, or effect the other way; inactive means no such curve, though single readings can be large or run the other way; the % refers to the signal ratio;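 further: cells stimulated with agonist L165041 at 300 nM final during compound exposure; on the % scale 0 is the no-effect control and ±100 the full control effect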); conditions: HEK293H PPARd-UAS-bla, beta-lactamase FRET ratio, antagonist, 17 h; ratio activity, negative = inhibition: at 62 µM (top of the series) unless noted
# Method in brief: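 Here, a reporter line (HEK293H, beta-lactamase under a UAS) measures PPARd signaling. Compounds are tested against agonist L165041 at 300 nM final concentration over 17 h at 37 C, with fluorescence read after substrate.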
# [10] = biological target: Bile acid receptor (Homo sapiens) (UniProt Q96RI1); experiment: qHTS assay to identify small molecule agonists of the farnesoid-X-receptor (FXR) signaling pathway (AID 743220; active means well fitted activation curve with a large enough effect in the signal ratio in the repeat runs, not every such curve was filed as active; inconclusive means weak or mixed curves, or effect the other way; the % refers to the signal ratio; further: potency means the concentration at half of the fitted maximal effect); conditions: HEK293T FXR-UAS-bla, beta-lactamase FRET ratio, 16 h; activation: at 62.6 µM (top of the series) unless noted
# Method in brief: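 FXR-UAS-bla HEK 293T cells carrying a UAS-driven beta-lactamase reporter were plated for 5 h at 37C/5% CO2, then exposed to DMSO-dissolved Tox21 10K compounds for 16 h at 37C. A LiveBLAzer B/G FRET substrate was loaded for 2 h at room temperature before fluorescence reading.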
# [11] = biological target: Vitamin D3 receptor (Homo sapiens) (UniProt P11473); experiment: qHTS assay to identify small molecule agonists of the vitamin D receptor (VDR) signaling pathway (AID 743222); conditions: HEK293T VDR-UAS-bla, beta-lactamase FRET ratio, 16 h; activation: at 63.5 µM (top of the series) unless noted; further: potency means the concentration at half of the fitted maximal effect
# Method in brief: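 Tox21 cell reporter format: VDR-bla line, 16 h compound exposure in 5% CO2 at 37C, then fluorescence intensity after 2 h with LiveBLAzer B/G FRET substrate.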
# [12] = qHTS assay to identify small molecule agonists of the vitamin D receptor (VDR) signaling pathway - cell viability counter screen (AID 743224; active means well fitted curve in the direction sought with a large enough effect in the repeat runs; inconclusive means weak or mixed curves; inactive means no such curve, though single readings can be large; an effect the other way counts as inactive or inconclusive; further: potency means the concentration at half of the fitted maximal effect; nearly all actives have a fitted effect of over 50% in size); conditions: VDR-bla HEK293T viability, CellTiter-Glo luminescence, 16 h; activity change, negative = cytotoxicity: at 62.6 µM (top of the series)
# Method in brief: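 CellTiter-Glo viability readout on VDR-bla cells, measured after 16 h of compound treatment at 37C in the same wells.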
# [13] = qHTS assay to identify small molecule agonists of the RXR signaling pathway - cell viability counter screen (AID 1159529; active means well fitted curve in the direction sought with a large enough effect in the repeat runs; inconclusive means weak or mixed curves; inactive means no such curve, though single readings can be large; an effect the other way counts as inactive or inconclusive; further: nearly all actives have a fitted effect of over 50% in size; further: potency means the concentration at half of the fitted maximal effect)
# Method in brief: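 Steps: seed RXR-alpha-UAS-bla HEK 293T cells in assay medium containing 2% charcoal-stripped FBS; incubate 5 hr; add compounds in DMSO; incubate 16 hr at 37 C; after the bla read, add CellTiter-Glo and read luminescence at 30 min.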
# [14] = qHTS assay to identify small molecule antagonists of the retinoid-related orphan receptor gamma (ROR-gamma) signaling pathway - cell viability counter screen (AID 1159520; active means well fitted curve in the direction sought with a large enough effect in the repeat runs; inconclusive means weak or mixed curves; inactive means no such curve, though single readings can be large; an effect the other way counts as inactive or inconclusive)
# Method in brief: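 Tet-on ROR gamma CHO cells were given compounds for 2 hr, then doxycycline hyclate at 1 uM final, and incubated 16 hr at 37 C. Viability was measured as ATP content by CellTiter-Glo luminescence.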
# [15] = qHTS assay to identify small molecule agonists of the farnesoid-X-receptor (FXR) signaling pathway - cell viability counter screen (AID 743218; active means well fitted curve in the direction sought with a large enough effect in the repeat runs; inconclusive means weak or mixed curves; inactive means no such curve, though single readings can be large; an effect the other way counts as inactive or inconclusive; further: potency means the concentration at half of the fitted maximal effect; nearly all actives have a fitted effect of over 45% in size); conditions: FXR-bla HEK293T viability, CellTiter-Glo luminescence, 16 h; viability change, negative = cytotoxic: at 62.6 µM (top of the series) unless noted
# Method in brief: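 Quantitative HTS counter screen measuring ATP-based viability via CellTiter-Glo luminescence in HEK 293T cells carrying a UAS-driven beta-lactamase reporter, after 16 h compound exposure at 37 C.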
# [16] = qHTS assay to identify small molecule antagonists of the farnesoid-X-receptor (FXR) signaling pathway - cell viability counter screen (AID 743221; active means well fitted cell-killing curve with a large enough effect in the repeat runs, not every such curve was filed as active; inconclusive means weak or mixed curves, or effect the other way; inactive means no such curve, though single readings can be large or run the other way); conditions: FXR-bla HEK293T viability, CellTiter-Glo luminescence, 16 h; activity change, negative = cytotoxicity: at 62.6 µM (top of the series)
# Method in brief: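 Multiplexed counter screen: viability of FXR-bla HEK 293T cells under agonist stimulation by chenodeoxycholic acid (50 uM, final) and test compound for 16 h at 37 C, measured by CellTiter-Glo luminescence in the reporter wells.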
# [17] = qHTS assay to identify small molecule antagonists of the vitamin D receptor (VDR) signaling pathway - cell viability counter screen (AID 743225; active means well fitted curve in the direction sought with a large enough effect in the repeat runs; inconclusive means weak or mixed curves; inactive means no such curve, though single readings can be large; an effect the other way counts as inactive or inconclusive); conditions: VDR-bla HEK293T viability, CellTiter-Glo luminescence, 16 h; viability change, negative = cytotoxic: at 61 µM (top of the series) unless noted
# Method in brief: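 HEK293T VDR-bla; cpd + 1a,25-(OH)2D3 3 nM final, 16 h 37C/5% CO2; B/G FRET substrate 2 h RT; then CellTiter-Glo 30 min RT, luminescence.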
# [18] = qHTS assay to identify small molecule antagonists of the retinoid acid receptor (RAR) signaling pathway - cell viability counter screen (AID 1159551; active means well fitted curve in the direction sought with a large enough effect in the repeat runs; inconclusive means weak or mixed curves; inactive means no such curve, though single readings can be large; an effect the other way counts as inactive or inconclusive; further: potency means the concentration at half of the fitted maximal effect; nearly all actives have a fitted effect of over 35% in size)
# Method in brief: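 In this counter screen, the RARE-luciferase line C3RL4 was exposed for 6 h at 37 C and 5% CO2 to compounds with retinol at 1 uM final. Cellular ATP, read by luminescence, served as the viability measure.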
# [19] = qHTS assay to identify small molecule agonists of the AP-1 signaling pathway - cell viability counter screen (AID 1159525); further: nearly all actives have a fitted effect of over 55% in size
# Method in brief: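 Same-well cytotoxicity counter screen of the Tox21 10K library in ME-180 cells. The readout is ATP-dependent luminescence after 5 h compound treatment. Data are normalised to DMSO and tetra n-octyl ammonium bromide controls.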
# Tags describe the fitted curve by direction and shape or compound fluorescence and quenching.
# Chain of UniProt Q03181 (Q03181 whole entry, looked up): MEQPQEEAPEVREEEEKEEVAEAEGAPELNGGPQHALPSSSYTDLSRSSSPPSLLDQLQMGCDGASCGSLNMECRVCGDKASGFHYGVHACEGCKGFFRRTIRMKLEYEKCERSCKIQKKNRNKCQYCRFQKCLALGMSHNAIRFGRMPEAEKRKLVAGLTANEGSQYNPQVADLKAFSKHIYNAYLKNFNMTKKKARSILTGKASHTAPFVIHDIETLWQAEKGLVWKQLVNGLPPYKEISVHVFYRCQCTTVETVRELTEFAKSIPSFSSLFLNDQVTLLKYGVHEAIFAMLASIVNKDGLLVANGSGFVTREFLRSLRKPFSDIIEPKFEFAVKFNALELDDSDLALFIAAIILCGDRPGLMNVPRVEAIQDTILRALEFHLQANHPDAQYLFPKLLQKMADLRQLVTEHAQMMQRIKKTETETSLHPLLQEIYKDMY
# Chain of UniProt P19793 (P19793 whole entry, looked up): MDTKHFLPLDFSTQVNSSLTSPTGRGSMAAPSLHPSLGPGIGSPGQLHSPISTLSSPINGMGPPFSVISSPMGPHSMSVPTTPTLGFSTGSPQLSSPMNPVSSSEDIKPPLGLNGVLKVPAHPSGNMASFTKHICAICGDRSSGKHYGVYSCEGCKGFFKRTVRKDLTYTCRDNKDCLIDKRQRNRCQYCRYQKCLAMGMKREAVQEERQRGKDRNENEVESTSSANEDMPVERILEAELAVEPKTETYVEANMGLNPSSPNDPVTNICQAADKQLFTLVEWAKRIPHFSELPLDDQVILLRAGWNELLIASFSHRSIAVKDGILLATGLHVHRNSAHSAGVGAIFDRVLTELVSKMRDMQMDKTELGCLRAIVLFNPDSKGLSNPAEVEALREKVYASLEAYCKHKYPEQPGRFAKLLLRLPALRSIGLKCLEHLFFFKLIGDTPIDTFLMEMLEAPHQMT
# Chain of UniProt Q96RI1 (Q96RI1 whole entry, looked up): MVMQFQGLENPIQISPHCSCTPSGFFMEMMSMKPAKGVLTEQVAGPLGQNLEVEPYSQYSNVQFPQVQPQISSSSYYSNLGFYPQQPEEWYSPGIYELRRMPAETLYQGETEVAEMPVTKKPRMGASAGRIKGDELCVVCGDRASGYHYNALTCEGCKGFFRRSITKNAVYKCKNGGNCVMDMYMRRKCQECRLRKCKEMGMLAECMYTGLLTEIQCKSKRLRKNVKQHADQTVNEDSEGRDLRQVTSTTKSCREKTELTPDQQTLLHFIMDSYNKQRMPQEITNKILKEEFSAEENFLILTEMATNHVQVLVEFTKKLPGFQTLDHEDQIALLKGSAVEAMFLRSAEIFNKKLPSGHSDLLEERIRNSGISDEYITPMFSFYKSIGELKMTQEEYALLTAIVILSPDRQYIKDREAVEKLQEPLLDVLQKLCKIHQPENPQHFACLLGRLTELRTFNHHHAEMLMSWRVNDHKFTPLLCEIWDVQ
# Chain of UniProt P11473 (P11473 whole entry, looked up): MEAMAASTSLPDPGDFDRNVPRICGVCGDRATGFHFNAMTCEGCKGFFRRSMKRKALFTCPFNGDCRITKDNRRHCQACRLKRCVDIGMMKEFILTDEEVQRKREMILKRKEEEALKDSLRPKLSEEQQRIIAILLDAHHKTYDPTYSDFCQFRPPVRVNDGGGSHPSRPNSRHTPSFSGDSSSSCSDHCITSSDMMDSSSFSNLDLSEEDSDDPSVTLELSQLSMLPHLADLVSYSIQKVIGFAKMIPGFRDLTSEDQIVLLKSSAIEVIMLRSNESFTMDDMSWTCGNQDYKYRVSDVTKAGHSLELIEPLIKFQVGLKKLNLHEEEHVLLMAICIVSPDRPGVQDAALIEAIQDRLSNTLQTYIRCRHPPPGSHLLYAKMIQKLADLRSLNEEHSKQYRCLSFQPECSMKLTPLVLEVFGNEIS
smiles,measurement,setting,value
Nc1cc(Cl)c(N)c(Cl)c1,"activity change, negative = inhibition",[1],inconclusive: 2.55%
same,"activity change, negative = inhibition",[2],inconclusive: 2.74% and inconclusive: 20%
same,Potency,[3],"inactive and inconclusive: 347 nM [cytotoxic, full curve, poor fit]"
same,Potency,[4],"inconclusive: 38.3 µM [inhibitor, partial curve, poor fit]"
same,activation,[5],inconclusive: -1.61%
same,activation,[6],inconclusive: -31.4%
C[C@@H]1[C@H](O)[C@@H](C)/C=C/C=C\C=C\C=C\C=C\C=C\C=C\[C@H](O[C@@H]2O[C@H](C)[C@@H](O)[C@H](N)[C@@H]2O)C[C@@H]2O[C@](O)(C[C@@H](O)C[C@@H](O)[C@H](O)CC[C@@H](O)C[C@@H](O)CC(=O)O[C@H]1C)C[C@H](O)[C@H]2C(=O)O (stereo in doubt),Potency,[7],"inconclusive: 21.9 µM [rising, partial curve, poor fit]"
same,Potency,[8],"inconclusive: 61.7 µM [cytotoxic, single point]"
same,"ratio activity, negative = inhibition",[9],inconclusive: -27.8%
same,"activity change, negative = inhibition",[1],inconclusive: 18.4%
same,Potency,[10],inconclusive: 55 µM [activator]
same,Potency,[11],"inconclusive: 55 µM [rising, single point]"
same,Potency,[2],"inconclusive: 49 µM [fluorescent, partial curve, poor fit]"
same,Potency,[12],"inconclusive: 61.7 µM [cytotoxic, single point]"
same,Potency,[3],"inconclusive: 49 µM [cytotoxic, partial curve, poor fit]"
same,Potency,[4],"inconclusive: 24.3 µM [inhibitor, partial curve]"
same,Potency,[5],"inconclusive: 61.7 µM [falling, partial curve, poor fit]"
same,Potency,[13],inconclusive: 55 µM [cytotoxic]
CCCCCCCCSCCO,Potency,[9],inactive
same,Potency,[10],inactive
same,Potency,[3],"inconclusive: 0.0049 µM [rising, full curve, poor fit]"
same,Potency,[14],inactive
O=C(O)c1cc(Cl)cc(Cl)c1O,activation,[7],inconclusive: 12.8%
same,Potency,[9],inactive
same,Potency,[15],"inconclusive: 27.5 µM [cytotoxic, single point]"
same,Potency,[16],"inconclusive: 1.23 µM [falling, full curve, poor fit]"
same,Potency,[17],inactive
same,Potency,[3],"inconclusive: 24.5 µM [cytotoxic, single point]"
same,Potency,[4],"inconclusive: 68.6 µM [inhibitor, single point]"
same,Potency,[6],inactive
CCN(CC)C(=O)N(CC)CC,Potency,[15],"inconclusive: 0.219 µM [rising, full curve, poor fit]"
same,Potency,[11],inactive
same,Potency,[3],inactive
same,Potency,[4],"inconclusive: 0.0344 µM [inhibitor, full curve, poor fit]"
same,Potency,[5],inactive
same,Potency,[6],inactive
Cc1ccc([N+](=O)[O-])c(C)c1,"ratio activity, negative = inhibition",[9],inconclusive: 0.249%
same,"activity change, negative = inhibition",[1],inconclusive: 1.62%
same,Potency,[10],inactive
same,Potency,[2],inactive
same,Potency,[3],"inconclusive: 0.49 µM [cytotoxic, single point]"
same,Potency,[4],active: 2.43 µM and inactive
same,activation,[5],inconclusive: 5.25%
same,Potency,[6],"inconclusive: 61.7 µM [cytotoxic, single point]"
same,Potency,[18],"inconclusive: 19.3 µM [rising, full curve]"
COc1cc2c3cc1Oc1cc(ccc1O)C[C@@H]1c4c(cc(OC)c(O)c4Oc4ccc(cc4)C[C@@H]3N(C)CC2)CC[N+]1(C)C,"activity change, negative = inhibition",[1],inconclusive: -12.6%
same,Potency,[15],"inconclusive: 0.335 µM [rising, full curve, poor fit]"
same,Potency,[11],inactive
same,Potency,[17],inactive
same,Potency,[3],inactive
same,Potency,[14],inactive
same,Potency,[13],inactive
C=CC(=O)OCCOC(=O)C=C,activation,[7],inconclusive: 6.81%
same,"ratio activity, negative = inhibition",[9],inconclusive: 17.4%
same,activation,[11],inconclusive: 6.47%
same,Potency,[3],"inconclusive: 54.9 µM [cytotoxic, partial curve, poor fit]"
same,Potency,[4],"inconclusive: 68.6 µM [inhibitor, single point]"
same,Potency,[19],inactive
same,Potency,[6],"inconclusive: 69.2 µM [activator, partial curve, poor fit]"
COc1ccc(S(=O)(=O)N2C(=O)[C@@](c3ccccc3OC)(N3C[C@H](O)C[C@H]3C(=O)N(C)C)c3cc(Cl)ccc32)c(OC)c1,activation,[7],inconclusive: -4.5%
same,Potency,[8],"inconclusive: 43.6 µM [cytotoxic, partial curve]"
same,Potency,[9],inactive
same,Potency,[2],"inconclusive: 12.3 µM [activator, partial curve, poor fit]"
same,Potency,[12],"inconclusive: 54.9 µM [cytotoxic, single point]"
same,Potency,[3],inactive
same,Potency,[4],"inconclusive: 43.3 µM [inhibitor, partial curve, poor fit]"
same,Potency,[5],inactive
same,activation,[6],inconclusive: -36.1%
same,Potency,[13],"inconclusive: 34.7 µM [cytotoxic, partial curve, poor fit]"

# Source: PubChem BioAssay (Tox21)
